# Measurements as given in PubChem BioAssay (NCI).
#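 Tested at 5 concentrations; 48 h exposure; 96-well plates; endpoints linearly interpolated, else capped at highest concentration. GI50 is the concentration that inhibits growth by half. TGI: total growth inhibition.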
# System: NCI-H322M lung
# Assay: NCI anticancer screen, dose series, 48 h
Structure (SMILES),GI50 [µM],TGI [µM]
O=C(Nc1ccc(Cl)c(C(F)(F)F)c1)N1CCN(c2cc(-c3cn(-c4ccccc4)nc3-c3cccc(O)c3)ccn2)CC1,5.86,> 22
CN(CCSSCCN1CCOCC1)C(=O)Oc1cc2c(c3ccccc13)[C@H](CCl)CN2C(=O)c1cc2cc(OCCCN3CCC3)ccc2[nH]1,0.00806,0.0762
CO[C@@H]1CSSC1Cn1nc(-c2ccc(Oc3ccccc3)cc2)c2c(N)ncnc21 (stereo partly drawn),63.8,> 100
Cc1ccc(C2CC(c3ccc(NC(=O)Nc4ccccc4)cc3)=NN2c2ccc(S(C)(=O)=O)cc2)cc1 (stereo not drawn),3.8,14.7
